Experimental data as given in US10336829B2, “Intracellular delivery compounds” (Sorrento Therapeutics, Inc., priority 2015, dated 2019).

Molecular target: STAT3 (Homo sapiens, UniProt P40763)
Assay: Cell binding assay of anti-STAT3 antibodies, fixed and permeabilized cells, flow cytometry
Design: endogenous in cells
Settings: MDA-MB-468 and U251 cells, serial dilutions, PE anti-human IgG
Description: Next, the binding of the candidate anti-STAT3 antibodies to cellular targets was tested in cell binding assays using MDA-MB-435 breast cancer cells and U251 cells. The cells were seeded overnight in a 96 well plate, then fixed with PFA and permeabilized with methanol. Cells were incubated with serial dilutions of the anti-STAT3 antibody candidates ST1A5, ST3G12 and ST5G12 for one hour and 30 minutes. Following incubation, the cells were washed and incubated for 30 minutes with phycoerythrin (PE) conjugated anti-human IgG. Fluorescence was measured on an Intellicyte high-throughput flow cytometry analyzer. […] Bevacizumab (Avastin), a monoclonal antibody that inhibits vascular endothelial growth factor A (VEGF-A) was used as a negative control.

Chain of STAT3 (P40763 whole entry): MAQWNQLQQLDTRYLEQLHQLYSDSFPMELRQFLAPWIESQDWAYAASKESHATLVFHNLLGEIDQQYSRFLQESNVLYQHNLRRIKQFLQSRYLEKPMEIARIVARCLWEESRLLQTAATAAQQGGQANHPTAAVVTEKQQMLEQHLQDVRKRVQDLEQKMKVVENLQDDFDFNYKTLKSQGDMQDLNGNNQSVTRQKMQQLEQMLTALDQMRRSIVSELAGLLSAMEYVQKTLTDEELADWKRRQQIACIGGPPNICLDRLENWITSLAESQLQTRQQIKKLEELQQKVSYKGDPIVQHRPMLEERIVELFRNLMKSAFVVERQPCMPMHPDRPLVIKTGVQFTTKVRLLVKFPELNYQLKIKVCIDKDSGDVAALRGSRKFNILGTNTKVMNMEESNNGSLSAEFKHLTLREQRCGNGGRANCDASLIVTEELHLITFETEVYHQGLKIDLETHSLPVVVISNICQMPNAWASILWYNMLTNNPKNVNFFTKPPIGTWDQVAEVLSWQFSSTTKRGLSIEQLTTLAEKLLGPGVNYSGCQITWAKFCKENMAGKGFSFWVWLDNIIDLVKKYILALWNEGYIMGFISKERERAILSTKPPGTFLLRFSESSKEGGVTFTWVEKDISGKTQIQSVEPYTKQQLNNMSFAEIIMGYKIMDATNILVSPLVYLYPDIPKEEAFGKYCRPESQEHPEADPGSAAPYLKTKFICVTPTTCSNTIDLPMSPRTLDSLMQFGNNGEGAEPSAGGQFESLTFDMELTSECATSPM

binding to STAT3 / cellular antigens (MFI): did not show strong STAT3 binding
B1: ST1A5: Human anti-human STAT3 antibody; heavy chain variable SEQ ID NO: 1, light chain variable SEQ ID NO: 2 (antibody, V domains shown)
VH: [letters of about 100 residues not shown]DGGLGWGTYFRLGDAFDIWGQGTMVTVSS
VL: QSVLTQPPSVSKGLRQTATLTCTGNSNNVGNEGAAWLQQHQGHPPKLLSYRNFNRPSGISERFSASRSGNTASLTITGLQPEDEADYYCSAWDSSLSAWVFGGGTKLTVL
